Experimental data reported in the supplement of paper PMC4967469.
The IC50 comes from the fitted curve, where viability falls to half of the control; a limit (>, <) means that the fit lies beyond the doses tested. AUC, from the same fit, is the share of area under the viability curve across the 256-fold dose range: 1 means no effect, lower means more sensitive. For part of these data: A top dose marked as inferred was calculated from the reported fits.

Columns and labels:
Experiment in all cases: Viability of human cancer cell lines after 72 h of drug (GDSC screen)
Trametinib = compound: CC(=O)Nc1cccc(-n2c(=O)n(C3CC3)c(=O)c3c(Nc4ccc(I)cc4F)n(C)c(=O)c(C)c32)c1 [Trametinib]; conditions: top dose 1 µM
Protocol: (§1)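 Human cancer cell lines in 384-well plates, medium with 10% serum, drug for 72 h over a 256-fold dose range (nine 2-fold or five 4-fold steps up to the top dose). Adherent lines were fixed and stained with the nucleic acid dye Syto60, suspension lines read with resazurin; signal relative to control wells, capped at 0 and 100%. One two-parameter sigmoid per drug and line, fitted in a mixed model over all curves with the slope shared within a line.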

HG-6-64-1 = compound: CCN1CCN(Cc2ccc(NC(=O)c3ccc(C)c(/C=C/c4cnc5[nH]ccc5c4OC)c3)cc2C(F)(F)F)CC1 [HG-6-64-1]; conditions: top dose 5.12 µM; top dose inferred
Protocol: as §1

PF-4708671 = compound: CCc1cncnc1N1CCN(Cc2nc3ccc(C(F)(F)F)cc3[nH]2)CC1 [PF-4708671]; conditions: top dose 10 µM; top dose inferred
Protocol: as §1

MS-275 = compound: Nc1ccccc1NC(=O)c1ccc(CNC(=O)OCc2cccnc2)cc1 [MS-275]; conditions: top dose 5 µM; top dose inferred
Protocol: as §1

KIN001-244 = compound: O=C(NC(COc1ccc2[nH]c(=O)[nH]c2c1)c1ccccc1)c1cccn(Cc2ccc(F)c(F)c2)c1=O [KIN001-244]; conditions: top dose 20 µM; top dose inferred
Protocol: as §1

I-BET-762 = compound: CCNC(=O)C[C@@H]1N=C(c2ccc(Cl)cc2)c2cc(OC)ccc2-n2c(C)nnc21 [I-BET-762]; conditions: top dose 20 µM; top dose inferred
Protocol: as §1

AV-951 = compound: COc1cc2nccc(Oc3ccc(NC(=O)Nc4cc(C)on4)c(Cl)c3)c2cc1OC [AV-951]; conditions: top dose 0.128 µM; top dose inferred
Protocol: as §1

Cell Line | AUC (Trametinib) | IC50 (Trametinib) [µM] | AUC (HG-6-64-1) | IC50 (HG-6-64-1) [µM] | AUC (PF-4708671) | IC50 (PF-4708671) [µM] | AUC (MS-275) | IC50 (MS-275) [µM] | AUC (KIN001-244) | IC50 (KIN001-244) [µM] | AUC (I-BET-762) | IC50 (I-BET-762) [µM] | AUC (AV-951) | IC50 (AV-951) [µM]
RS4-11 (leukaemia, suspension) | 0.981 | > 1 | 0.769 | 1.77 | 0.973 | > 10 | 0.959 | > 5 | 0.642 | 2.98 | 0.501 | 1.26 | 0.979 | > 0.128
RXF393 (kidney, adherent) | 0.396 | 0.029 | 0.457 | 0.233 | 0.946 | > 10 | 0.924 | > 5 | 0.817 | 17.3 | 0.976 | > 20 | 0.975 | > 0.128
Ramos-2G6-4C10 (Burkitt lymphoma, suspension) | 0.949 | > 1 | 0.734 | 1.32 | 0.966 | > 10 | 0.546 | 0.409 | 0.705 | 4.28 | 0.763 | 6.24 | 0.985 | > 0.128
SBC-1 (small cell lung carcinoma, suspension) | 0.985 | > 1 | 0.988 | > 5.12 | 0.984 | > 10 | 0.716 | 1.24 | 0.956 | > 20 | 0.83 | 11.9 | 0.988 | > 0.128
SCH (stomach, adherent) | 0.987 | > 1 | 0.986 | > 5.12 | 0.971 | > 10 | 0.865 | 4.98 | 0.978 | > 20 | 0.988 | > 20 | 0.988 | > 0.128
SF126 (glioma, adherent) | 0.888 | > 1 | 0.587 | 0.563 | 0.983 | > 10 | 0.81 | 2.82 | 0.872 | > 20 | 0.952 | > 20 | 0.978 | > 0.128
SF268 (glioma, adherent) | 0.868 | > 1 | 0.691 | 1.15 | 0.979 | > 10 | 0.823 | 3.26 | 0.846 | 16.4 | 0.872 | > 20 | 0.983 | > 0.128
SF539 (glioma, adherent) | 0.536 | 0.0776 | 0.803 | 2.25 | 0.963 | > 10 | 0.388 | 0.16 | 0.918 | > 20 | 0.979 | > 20 | 0.964 | > 0.128
SH-4 (melanoma, adherent) | 0.104 | < 0.00391 | 0.625 | 0.856 | 0.914 | > 10 | 0.668 | 1.2 | 0.706 | 6.67 | 0.848 | > 20 | 0.972 | > 0.128
SHP-77 (small cell lung carcinoma, semi-adherent) | 0.991 | > 1 | 0.963 | > 5.12 | 0.97 | > 10 | 0.851 | 3.21 | 0.91 | > 20 | 0.872 | 15.7 | 0.989 | > 0.128
SIMA (neuroblastoma, adherent) | 0.71 | 0.267 | 0.879 | > 5.12 | 0.983 | > 10 | 0.932 | > 5 | 0.851 | 18.5 | 0.817 | 13.1 | 0.978 | > 0.128
SJSA-1 (bone, adherent) | 0.717 | 0.28 | 0.826 | 3.65 | 0.972 | > 10 | 0.704 | 1.28 | 0.925 | > 20 | 0.772 | 8.75 | 0.975 | > 0.128
SK-ES-1 (Ewing sarcoma, semi-adherent) | 0.983 | > 1 | 0.743 | 1.67 | 0.974 | > 10 | 0.843 | 3.9 | 0.839 | 14.9 | 0.926 | > 20 | 0.981 | > 0.128
SK-LMS-1 (soft tissue, adherent) | 0.28 | 0.0154 | 0.549 | 0.433 | 0.949 | > 10 | 0.869 | 4.23 | 0.842 | 13.1 | 0.838 | 12.5 | 0.986 | > 0.128
SK-MEL-1 (melanoma, suspension) | 0.225 | 0.0114 | 0.958 | > 5.12 | 0.978 | > 10 | 0.931 | > 5 | 0.963 | > 20 | 0.992 | > 20 | 0.989 | > 0.128
SK-MEL-2 (melanoma, adherent) | 0.108 | < 0.00391 | 0.786 | 2.3 | 0.984 | > 10 | 0.96 | > 5 | 0.953 | > 20 | 0.986 | > 20 | 0.985 | > 0.128
SK-MM-2 (myeloma, suspension) | 0.985 | > 1 | 0.915 | > 5.12 | 0.987 | > 10 | 0.568 | 0.483 | 0.865 | 19 | 0.757 | 7.17 | 0.98 | > 0.128
SK-N-DZ (neuroblastoma, adherent) | 0.801 | 0.482 | 0.958 | > 5.12 | 0.96 | > 10 | 0.712 | 1.23 | 0.924 | > 20 | 0.952 | > 20 | 0.985 | > 0.128
